# Laboratory results taken from the supplement of paper PMC8728848.
# Some of the results follow.
# How the values were obtained:
# Assay in all cases: glycan array binding signal (z-score within array); higher = stronger binding
# Conditions in all cases: glycan notation: IUPAC condensed, linker removed; mutation: R82H, R255H
# [1] = target: Fuc(a1-2)Gal(b1-4)GlcNAc(b1-3)Gal(b1-4)GlcNAc(b1-2)Man(a1-3)[Fuc(a1-2)Gal(b1-4)GlcNAc(b1-3)Gal(b1-4)GlcNAc(b1-2)Man(a1-6)]Man(b1-4)GlcNAc(b1-4)GlcNAc
# How it was run: (§1)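 Columns mapping to the same glycan were averaged after glycan names were converted to IUPAC-condensed notation. The data come from 3228 arrays in the Consortium for Functional Glycomics database, limited to those with an available protein sequence. Binding is reported as a within-array Z-score averaged across arrays of one protein sequence and across linkers.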
# [2] = target: Fuc(a1-2)Gal(b1-4)GlcNAc(b1-3)Gal(b1-4)GlcNAc(b1-3)Gal(b1-4)GlcNAc
# How it was run: as §1
# [3] = target: Fuc(a1-2)Gal(b1-4)GlcNAc(b1-3)GalNAc
# How it was run: as §1
# [4] = target: Fuc(a1-2)Gal(b1-4)GlcNAc(b1-3)[Fuc(a1-2)Gal(b1-4)GlcNAc(b1-6)]GalNAc
# How it was run: as §1
# [5] = target: Fuc(a1-2)Gal(b1-4)GlcNAc(b1-3)[Fuc(a1-3)[Gal(b1-4)]GlcNAc(b1-6)]Gal(b1-4)Glc
# How it was run: as §1
# [6] = target: Fuc(a1-2)Gal(b1-4)GlcNAc(b1-6)GalNAc
# How it was run: as §1
# [7] = target: Fuc(a1-2)Gal(b1-4)GlcNAc6S
# How it was run: as §1
# [8] = target: Fuc(a1-2)Gal(b1-4)[Fuc(a1-3)]GlcNAc
# How it was run: as §1
# [9] = target: Fuc(a1-2)Gal(b1-4)[Fuc(a1-3)]GlcNAc(b1-2)Man(a1-3)[Fuc(a1-2)Gal(b1-4)[Fuc(a1-3)]GlcNAc(b1-2)Man(a1-6)]Man(b1-4)GlcNAc(b1-4)[Fuc(a1-6)]GlcNAc
# How it was run: as §1
# [10] = target: Fuc(a1-2)Gal(b1-4)[Fuc(a1-3)]GlcNAc(b1-2)[Fuc(a1-2)Gal(b1-4)[Fuc(a1-3)]GlcNAc(b1-4)]Man(a1-3)[Fuc(a1-2)Gal(b1-4)[Fuc(a1-3)]GlcNAc(b1-2)Man(a1-6)]Man(b1-4)GlcNAc(b1-4)GlcNAc
# How it was run: as §1
# [11] = target: Fuc(a1-2)Gal(b1-4)[Fuc(a1-3)]GlcNAc(b1-3)Gal(b1-4)[Fuc(a1-3)]GlcNAc
# How it was run: as §1
# [12] = target: Fuc(a1-2)Gal(b1-4)[Fuc(a1-3)]GlcNAc(b1-3)Gal(b1-4)[Fuc(a1-3)]GlcNAc(b1-3)Gal(b1-4)[Fuc(a1-3)]GlcNAc
# How it was run: as §1
# [13] = target: Fuc(a1-2)Gal(b1-4)[Fuc(a1-3)]GlcNAc(b1-3)GalNAc
# How it was run: as §1
# [14] = target: Fuc(a1-2)Gal(b1-4)[Fuc(a1-3)]GlcNAc(b1-3)[Neu5Ac(a2-6)Gal(b1-4)GlcNAc(b1-6)]Gal(b1-4)Glc
# How it was run: as §1
# [15] = target: Fuc(a1-2)Gal3S(b1-4)GlcNAc
# How it was run: as §1
# [16] = target: Fuc(a1-2)Gal6S(b1-3)GlcNAc
# How it was run: as §1
# [17] = target: Fuc(a1-2)Gal6S(b1-3)GlcNAc6S
# How it was run: as §1
# Fuc(a1-2)Gal6S(b1-4)Glc = target: Fuc(a1-2)Gal6S(b1-4)Glc
# How it was run: as §1
# [18] = target: Fuc(a1-2)Gal6S(b1-4)Glc6S
# How it was run: as §1
# Fuc(a1-2)[Gal(a1-3)]Gal = target: Fuc(a1-2)[Gal(a1-3)]Gal
# How it was run: as §1
# [19] = target: Fuc(a1-2)[Gal(a1-3)]Gal(b1-3)GalNAc
# How it was run: as §1
# [20] = target: Fuc(a1-2)[Gal(a1-3)]Gal(b1-3)GalNAc(b1-3)Gal(a1-4)Gal(b1-4)Glc
# How it was run: as §1
# [21] = target: Fuc(a1-2)[Gal(a1-3)]Gal(b1-3)GlcNAc
# How it was run: as §1
# [22] = target: Fuc(a1-2)[Gal(a1-3)]Gal(b1-3)GlcNAc(b1-2)Man(a1-3)[Fuc(a1-2)[Gal(a1-3)]Gal(b1-3)GlcNAc(b1-2)Man(a1-6)]Man(b1-4)GlcNAc(b1-4)GlcNAc
# How it was run: as §1
# [23] = target: Fuc(a1-2)[Gal(a1-3)]Gal(b1-3)GlcNAc(b1-2)Man(a1-3)[Fuc(a1-2)[Gal(a1-3)]Gal(b1-3)GlcNAc(b1-2)Man(a1-6)]Man(b1-4)GlcNAc(b1-4)[Fuc(a1-6)]GlcNAc
# How it was run: as §1
# [24] = target: Fuc(a1-2)[Gal(a1-3)]Gal(b1-3)GlcNAc(b1-3)GalNAc
# How it was run: as §1
# [25] = target: Fuc(a1-2)[Gal(a1-3)]Gal(b1-3)GlcNAc(b1-6)GalNAc
# How it was run: as §1
# [26] = target: Fuc(a1-2)[Gal(a1-3)]Gal(b1-4)Glc
# How it was run: as §1
# [27] = target: Fuc(a1-2)[Gal(a1-3)]Gal(b1-4)GlcNAc
# How it was run: as §1
# [28] = target: Fuc(a1-2)[Gal(a1-3)]Gal(b1-4)GlcNAc(b1-2)Man
# How it was run: as §1
binder,measurement,setting,value
"Gal 8 (Mus musculus), Q9JL15 (protein) MGGSHHHHHHGMASMLSLNNLQNIIYNPIIPYVGTITEQLKPGSLIVIRGHVPKDSERFQVDFQLGNSLKPRADVAFHFNPHFKRSSCIVCNTLTQEKWGWEEITYDMPFRKEKSFEIVFMVLKNKFQVAVNGRHVLLYAHRISPEQIDTVGIYGKVNIHSIGFRFSSASALPHTLGDLQSMETSALGLTQINRENIQKPGKLQLSLPFEARLNASMGPGRTVVIKGEVNTNARSFNVDLVAGKTRDIALHLNPHLNVKAFVRNSFLQDAWGEEERNITCFPFSSGMYFEMIIYCDVREFKVAINGVHSLEYKHRFKDLSSIDTLSVDGDIRLLDVRSW",glycan array binding signal (z-score),[1],-0.178
same,glycan array binding signal (z-score),[2],-0.252
same,glycan array binding signal (z-score),[3],-0.255
same,glycan array binding signal (z-score),[4],-0.218
same,glycan array binding signal (z-score),[5],-0.413
same,glycan array binding signal (z-score),[6],-0.239
same,glycan array binding signal (z-score),[7],-0.243
same,glycan array binding signal (z-score),[8],-0.253
same,glycan array binding signal (z-score),[9],-0.21
same,glycan array binding signal (z-score),[10],-0.169
same,glycan array binding signal (z-score),[11],-0.264
same,glycan array binding signal (z-score),[12],-0.258
same,glycan array binding signal (z-score),[13],-0.219
same,glycan array binding signal (z-score),[14],-0.27
same,glycan array binding signal (z-score),[15],-0.255
same,glycan array binding signal (z-score),[16],-0.207
same,glycan array binding signal (z-score),[17],0.037
same,glycan array binding signal (z-score),Fuc(a1-2)Gal6S(b1-4)Glc,0.919
same,glycan array binding signal (z-score),[18],-0.221
same,glycan array binding signal (z-score),Fuc(a1-2)[Gal(a1-3)]Gal,-0.252
same,glycan array binding signal (z-score),[19],-0.238
same,glycan array binding signal (z-score),[20],-0.263
same,glycan array binding signal (z-score),[21],3.22
same,glycan array binding signal (z-score),[22],4.77
same,glycan array binding signal (z-score),[23],-0.114
same,glycan array binding signal (z-score),[24],-0.176
same,glycan array binding signal (z-score),[25],-0.076
same,glycan array binding signal (z-score),[26],-0.176
same,glycan array binding signal (z-score),[27],-0.237
same,glycan array binding signal (z-score),[28],-0.205
